The source gives no read counts; variants with many changes may rest on few reads.
B1: LINE1-mini (parent)
chain: GGCAGAGCUCAACACAGCGUGGCAAAGUGGCUGUGGCUAGACUGCC

Variants of: B1
Assay: self-cleavage, relative activity (ratio to wild type); higher = more cleavage; in vitro, sequencing; the parent is a self-cleaving ribozyme

| Variant | self-cleavage |
| --- | --- |
| CGCCCAGCUCAACACAGCGUGGCAAAGUGGCUGUGGCUAGACUGCC [G1C A4C G5C] | 0.03 |
| CGCAGUGCUCAACACAGCGUGUCAAAGUGGCUGUGGCUAUACUGCC [G1C A6U G22U G40U] | 0.09 |
| CGCAGGGCUCAACACAGCGUGACAAAGUGGCUGUGGCUAGACUGUC [G1C A6G G22A C45U] | 0.01 |
| CGCCGAGCUCAACACAGCGUGGCAAAGUGGCUGUAGCUAGACUGCC [G1C A4C G35A] | 0.06 |
| CGCAGCGCUCAACACAGCAUGGCAAAGUGGCUUUGGCUAGACUGCC [G1C A6C G19A G33U] | 0.07 |
| CGCAGCGCUCAACACAGUGUGGCAAAGUGGCUGUAGCUAGACUGAC [G1C A6C C18U G35A C45A] | 0.02 |
| CGCAGUGCUAAACACACCGUUGCAAAGUGGCCGUGGCUAGACUGCC [G1C A6U C10A G17C G21U U32C] | 0.01 |
| CGCAGCGCUCAACACAGCGUGGCAAAGGGGCUGUGGCUAGACUGCC [G1C A6C U28G] | 0.02 |
| CGCAGCGCUCAACACAGCGUGGCAAAGGGGCUGUGGAUGGAUUGCC [G1C A6C U28G C37A A39G C42U] | 0.01 |
| CGCAGGGAUCAACACAGCGUGGCAAAGUGGCUGUGGCUAGAGUGCC [G1C A6G C8A C42G] | 0.03 |
| CGCAGUGCUCAACGCAGCGAGGCAAAGUGGCUGUGGCUAGACUGCC [G1C A6U A14G U20A] | 0.05 |
| CGCAGGGCACAACACAGCGUGGCAAAGUGGCUGUGGCUAGACUGCA [G1C A6G U9A C46A] | 0.05 |
| CGCAGUCCUCAACACAGCGUGGCAAAGUGGCUGUGGCUAGACUGCC [G1C A6U G7C] | 0.04 |
| CGCUGAGCUCCACACAGCGUGGCAAAGUGGCUGUGGGGAGACUGCC [G1C A4U A11C C37G U38G] | 0.01 |
| CGCUGAGCUCAACACAUCGUGGCAAAGUGGCUGUGGCUAGACUGCA [G1C A4U G17U C46A] | 0.03 |
| CGCUGAGCUCAACAGAGCGUGGGAAAGUGUCUGUGGCUAGACUGCC [G1C A4U C15G C23G G30U] | 0.02 |
| CGCGGAGCUUAACACAGCGUGGCAAAGUGGCUGUGGCUAGACUGCC [G1C A4G C10U] | 0.07 |
| CGCAGAGCUCCACACUGCGUGGCAAAGUGGCUCUGGCUAGACUGCC [G1C A11C A16U G33C] | 0.01 |
| CGCAGGGCUCAAUACUGCGUGGCAAAGUGGCUGUGGCUAGACUGCC [G1C A6G C13U A16U] | 0.01 |

| Variant | self-cleavage |
| --- | --- |
| CGCAGGGAUCAACACACCGUGGCAAAGUGGCUGUGGCAAGACUGCC [G1C A6G C8A G17C U38A] | 0.07 |
| CGCGGAGCUCAACACAGCGUUGCAAAGUGGCUGUGGCUAGACUGCC [G1C A4G G21U] | 0.72 |
| CGCGGAGCUCAAGACAGCUUCGCAAAGUAGCUGUGGCUAGACUGCC [G1C A4G C13G G19U G21C G29A] | 0 |
| CGCAGUGCCCAACACAGCGUGGCAAAUUGGCUGUGGCUAGACUGCC [G1C A6U U9C G27U] | 0.02 |
| CGCAGGGCCCAACACAGCGGGGAAAAGUGACUGUGGCUAGACUGCC [G1C A6G U9C U20G C23A G30A] | 0.02 |
| CGCGUAGUUCAACACAGCGUGGCAAAGUGGUUGUGGCUAGACCGCC [G1C A4G G5U C8U C31U U43C] | 0.02 |
| CGCAGAGCUCCACACAGCGUGGAAAAGUGGCUAUGGCCAGACUGCC [G1C A11C C23A G33A U38C] | 0.01 |
| CGCAGUGCACAACACAGCGUGGCGAACUGGCUGUGGCUAGAAUGCC [G1C A6U U9A A24G G27C C42A] | 0.01 |
| CGCAGCGCUCAACAUAGUGUGGCUAAGUGGCUGUGGCUAGACUGCC [G1C A6C C15U C18U A24U] | 0.01 |
| CGCGGAGCCCAACACAGAGUGGGAAUGUGGCUGUUGAUAGACUGCA [G1C A4G U9C C18A C23G A26U G35U C37A C46A] | 0 |
| CGCUGAGCUCAACAUAGCGUGGCAUAGAGGAGGUGGCUAGACUGCC [G1C A4U C15U A25U U28A C31A U32G] | 0.01 |
| CGCAGUGCUCAAAAGAGCGUGGCAAAGUGGCUGUGGCUAGACGGCC [G1C A6U C13A C15G U43G] | 0.03 |
| CGCCGAGCACAACACAGCGUGGCAAAGUGGCUGUGGCUAGAAUGCC [G1C A4C U9A C42A] | 0.03 |
| CGCGAAGCUCAACACACCGUGGCAAAGUGGCUGUGGCUAGACUGCC [G1C A4G G5A G17C] | 0.02 |
| CGCAGAGCUCCACACAGCGUGGCAAAGUGGCUGUGGAUUGAUUGCC [G1C A11C C37A A39U C42U] | 0.04 |
| CGCAGGGCUCAACACAGCGUGGCAAAGUGGCUGUGGCUCGACUGCC [G1C A6G A39C] | 0.04 |
| CGCAGAGCUCCACACAACGUGGCAAAGUGGCUGUGGCUAGACUGCC [G1C A11C G17A] | 0.02 |
| CGCUGAGCUCAACACAGCGUGGCAAAUUGGCUGUGGCUAGACUGCC [G1C A4U G27U] | 0.04 |
| CGCAGAGCUCCACACAGCGUGGCAAAGUGGGUGUGGCUAGACUGCC [G1C A11C C31G] | 0.01 |

| Variant | self-cleavage |
| --- | --- |
| CGCAGUGCUCAAUACAGCGUGGCAAAGUGGCUAUGGCUAGACUGCC [G1C A6U C13U G33A] | 0.16 |
| CGCAGGGCUCAAGAAAGCGCAGCAAAGUGGCUGUGGCUAGACUGCC [G1C A6G C13G C15A U20C G21A] | 0 |
| CGCUGAGCUCAAUACAGCGUGGCAAAGUGACUGUGGCUAGACUGCC [G1C A4U C13U G30A] | 0.07 |
| CGCAGCGCUCAAGACAGCGUGGUAAAGUGGCUUGGGCUAGACUGCG [G1C A6C C13G C23U G33U U34G C46G] | 0.01 |
| CGCAGGUCUCAACACAGCGUGGCAAAGUGGCUGUGGCUAGACUGCC [G1C A6G G7U] | 0.02 |
| CGCAGAGCUCCACACAGCGGGGCAAAGUGGCUGUGGCAAGACUGCC [G1C A11C U20G U38A] | 0 |
| CGCUGAGCUCUACACAGCGUGGCAAAGUGGCUUUGACUAGACUGCA [G1C A4U A11U G33U G36A C46A] | 0.01 |
| CGCAGAGCUCCACACAGCGUGGCAGAGUGGCUGUGGCUAGACAGCC [G1C A11C A25G U43A] | 0 |
| CGCUGAGCACAUCACAGCGUUGCAAAGUGGCUUUGGCUAGACUGCC [G1C A4U U9A A12U G21U G33U] | 0.01 |
| CGCAGCGCUCAUCACAGCGUGGCAAAGUUGCUGUGGCUAGACUGAC [G1C A6C A12U G29U C45A] | 0 |
| CGCCGAGCUCAACACAGCGUGGCAAAGUGCCUGUGGCUAGGCUUCC [G1C A4C G30C A41G G44U] | 0.03 |
| CGCGGAGCUCAACACAGCGUUGCAAAGUGGUUGUGGCUAGACUGCC [G1C A4G G21U C31U] | 0.02 |
| CGCAGGGCUCAACACAGAGUGGCAAAGUGGCUGUGGCUAGACUGCC [G1C A6G C18A] | 0.03 |
| CGCCGAGCUCAACACAGCGUGGCAAAGUUGCUGUGGUUAGACUGCC [G1C A4C G29U C37U] | 0.05 |
| CGCAGCGCUAAACACAGCGUGGCAAACUGGCUGUGGCUAGACUGCC [G1C A6C C10A G27C] | 0.03 |
| CGCUGAGGUCAACAGAGCGUGGCACAGUGGCUGUGUCUAGACUGCC [G1C A4U C8G C15G A25C G36U] | 0.01 |
| CGCCGAGCUCAACACAGCGUGGCAAAGUGGCUGUGGGUAGACUGCC [G1C A4C C37G] | 0.04 |
| CGCCGAGCUCAACACAGCGUGGCAAAGUGGCUAGGGCAAGACUGCC [G1C A4C G33A U34G U38A] | 0.02 |
